Test results: PMC4336329 (PLoS ONE, 2015)
The whole screen tested about 310,000 compounds, of which about 2,200 (0.71%) showed an effect of 50% or more. Effects have a minus sign here. This is one part of the list.

target: human ether-à-go-go-related gene (hERG) potassium channel (human, UniProt Q12809); assay: primary screen, population patch clamp on CHO cells stably expressing hERG
Sequence (Q12809 whole entry, looked up): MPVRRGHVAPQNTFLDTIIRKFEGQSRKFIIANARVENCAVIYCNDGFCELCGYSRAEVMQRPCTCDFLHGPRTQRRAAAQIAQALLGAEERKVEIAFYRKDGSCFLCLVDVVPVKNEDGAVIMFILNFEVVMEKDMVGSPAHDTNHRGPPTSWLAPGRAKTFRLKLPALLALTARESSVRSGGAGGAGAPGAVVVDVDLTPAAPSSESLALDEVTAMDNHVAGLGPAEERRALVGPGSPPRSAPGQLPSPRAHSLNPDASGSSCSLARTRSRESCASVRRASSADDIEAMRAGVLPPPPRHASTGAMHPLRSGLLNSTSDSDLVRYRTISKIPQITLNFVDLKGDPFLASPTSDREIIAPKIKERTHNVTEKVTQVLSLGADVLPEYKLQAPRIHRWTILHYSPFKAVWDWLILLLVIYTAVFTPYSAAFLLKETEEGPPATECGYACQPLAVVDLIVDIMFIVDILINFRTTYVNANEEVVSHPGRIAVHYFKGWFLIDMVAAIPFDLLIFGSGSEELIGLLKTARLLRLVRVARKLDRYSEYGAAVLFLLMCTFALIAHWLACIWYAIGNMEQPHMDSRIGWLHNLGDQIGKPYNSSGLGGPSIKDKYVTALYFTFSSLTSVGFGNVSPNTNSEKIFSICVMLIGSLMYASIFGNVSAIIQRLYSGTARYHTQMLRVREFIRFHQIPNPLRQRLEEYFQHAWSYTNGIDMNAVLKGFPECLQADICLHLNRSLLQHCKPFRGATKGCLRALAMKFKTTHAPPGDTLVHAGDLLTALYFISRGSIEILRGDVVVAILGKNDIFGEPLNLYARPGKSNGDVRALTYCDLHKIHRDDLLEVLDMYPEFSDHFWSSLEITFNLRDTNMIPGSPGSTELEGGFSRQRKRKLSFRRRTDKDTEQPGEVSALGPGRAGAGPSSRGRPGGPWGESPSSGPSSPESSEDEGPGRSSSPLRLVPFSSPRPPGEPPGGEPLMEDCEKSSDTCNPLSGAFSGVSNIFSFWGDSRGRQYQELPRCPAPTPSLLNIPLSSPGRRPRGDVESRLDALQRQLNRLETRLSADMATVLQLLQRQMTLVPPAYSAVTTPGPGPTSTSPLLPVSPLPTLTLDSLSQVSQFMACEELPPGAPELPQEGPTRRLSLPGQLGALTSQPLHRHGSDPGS

| Structure (SMILES) | hERG current change (%, negative = inhibition) at 1uM |
| --- | --- |
| CCOC(=O)c1ccc(N/N=C/c2cc(Br)cc([N+](=O)[O-])c2O)cc1 | 15.5% |
| CCc1cc2c(=O)c(-c3ccc4c(c3)OCO4)coc2c(CN(C)C)c1O | 15.1% |
| COC(=O)c1ccccc1C(=O)N1CCCC(CNC(=O)c2ccc(F)cc2)C1 (centres unmarked) | 16.6% |
| O=C(CCN1C(=O)c2ccccc2S1(=O)=O)Nc1ccc(F)c([N+](=O)[O-])c1 | -2.56% |
| CC(C#N)Sc1ncnc2sc(-c3ccccc3)cc12 (centres unmarked) | 12% |
| O=C(O)c1cccc(N2C(=O)/C(=C/c3ccc([N+](=O)[O-])cc3)C=C2c2ccccc2)c1 | 4.68% |
| COc1ccccc1C(c1nnnn1Cc1ccccc1)N1CCC(C(N)=O)CC1.Cl (centres unmarked) | 9.67% |
| CN(Cc1ccccc1F)C(=O)c1ccccc1Sc1ccccc1C#N | 14.1% |
| Cc1cccc(CN2CCN(C(=O)c3cccc4ccccc34)CC2)c1 | 10.7% |
| Cc1c(C)n(CCc2ccccc2)c2ncnc(NCCCO)c12 | -11.7% |
| NS(=O)(=O)c1cc(C(=O)N=Nc2c(O)[nH]c3ccccc23)ccc1Cl | 10% |
| Cc1cccc(NC(=S)N2CCC(c3nc4ccccc4o3)CC2)c1C | 0.97% |
| CCN(CC)CC#CC(C)OCOCC#CCOC (centres unmarked) | 5.78% |
| Cc1cccc(-n2ccnc2SCC(=O)O)c1C | 10.2% |
| COc1cc2[nH]c(=O)n(CCCC(=O)NCCc3ccccc3)c(=O)c2cc1OC | 5.07% |
| O=C(COc1ccccc1)NCc1ccccc1 | 11.7% |
| O=C(CN1C(=O)NC2(CCCC2)C1=O)N1CCN(c2ccccc2Cl)CC1 | 14.2% |
| CC1=NN(c2nc(-c3ccc(C#N)cc3)cs2)C(=O)C1 | 5.48% |
| COCCNC(=O)C(c1ccc(F)cc1)N(CCOC)C(=O)CCC(=O)Nc1ccccn1 (centres unmarked) | 13.8% |
| CCCCC(CCC(=O)NNC(=O)Cc1ccccc1)C(=O)O (centres unmarked) | 1.46% |
| COc1ccccc1NC(=O)CSc1nc(=O)n(Cc2ccncc2)c2c1CCCC2 | 6.01% |
| O=C(NC1CCCc2ccccc21)C1CCCN(S(=O)(=O)c2cnc[nH]2)C1 (centres unmarked) | 6.56% |

| Structure (SMILES) | hERG current change (%, negative = inhibition) at 1uM |
| --- | --- |
| CC(C)CNC(=O)COc1ncnc2sccc12 | 8.92% |
| COc1ccc(-c2nn(CCC#N)cc2C(=O)Nc2cccc([N+](=O)[O-])c2)cc1OC | -9.87% |
| CSc1ccc(NC(=O)NCCN2CCc3ccccc3C2)cc1 | -18.7% |
| Cc1cc(-c2nnc3sc(-c4ccc(Cl)cc4Cl)nn23)n[nH]1 | 11.5% |
| O=C(NCCNC(=O)C1CC2CCC1C2)C1CC2CCC1C2 (centres unmarked) | 5.85% |
| O=C(CN1CCN(Cc2ccc3c(c2)OCO3)CC1)N1CCc2[nH]c3ccc(F)cc3c2C1 | -18.5% |
| CC(C)(C)c1cc(C(=O)NCc2cc(F)cc3c2OCOC3)n(Cc2ccccc2)n1 | 10.3% |
| Cc1ccc(-c2nn(-c3cc(Cl)ccc3[N+](=O)[O-])c(=O)c3ccccc23)cc1C | 12.2% |
| Cc1ccc(NC(=O)COC(=O)Cn2cnc3c2c(=O)n(C)c(=O)n3C)cc1Cl | 4.08% |
| CC(C)Oc1ccc(C(=O)NCc2cccnc2)cc1 | 11.9% |
| O=C(Nc1ccccc1)Oc1ccccc1N1CCOCC1 | 7.21% |
| CC(O)CNc1nc2sc3c(c2c(=O)n1CCc1ccccc1)CCCCC3 (centres unmarked) | 12.9% |
| Cc1ccccc1C(=O)N1CCC(C(=O)NN2C(=O)NC3(CCC(C)CC3)C2=O)CC1 (centres unmarked) | 0.564% |
| Cc1cccc(NC(=O)c2sc(Cl)nc2-c2ccccc2)c1 | 28% |
| Cc1nn(CC(=O)NCCCc2ccccc2)c(=O)c2cc3occc3n12 | 13.2% |
| CC(=O)NC(c1ccc(C(C)C)cc1)c1c(O)ccc2ccccc12 (centres unmarked) | 17.5% |
| c1ccc(-c2cnnc3ccccc23)cc1 | -0.645% |
| O=C(Nc1ccccn1)c1ccc2ccccc2c1O | 11% |
| Cc1ccc(Cn2ncc3c(N4CCN(C5CCCC5)CC4)ncnc32)cc1 | -0.0382% |
| N#Cc1cnn2c(-c3ccccc3)ccnc12 | 10.6% |
| O=C(NCC1CCCCC1)C1CCCN(C(=O)NC2CCCCC2)C1 (centres unmarked) | 7.02% |
| CC(C)N(C(=O)CSc1nnc(NC(=O)c2cccs2)s1)C(C)C | 10.9% |
